{"source": "PubChem BioAssay AID485364", "about": "(National Center for Advancing Translational Sciences (NCATS), 2010)", "note": "The campaign covered roughly 360,000 compounds. About 11,000 (3.1%) were called active. Inconclusive means that the source gave no clear call. Such entries were picked first, then a sample of the others. Calls follow the shape of the dose curve; as a rule, active = well fitted inhibition curve with a large enough effect; inconclusive = small, poorly fitted or top-dose-only effect; inactive = no such curve, though single readings can be large or run the other way. No potency is given beside an inconclusive call; the fits are too rough. % is scaled to controls: 0 for no effect and ±100 for the full control effect; potency is read from the fitted curve at half-maximal effect; tags tell the direction and shape of the fitted curve."}
{"biological_target": "Schistosoma mansoni thioredoxin glutathione reductase (TGR) (UniProt Q962Y6)", "assay": "qHTS Assay for the Inhibitors of Schistosoma Mansoni Peroxiredoxins; also: nearly all actives have a fitted effect of over 60% in size", "conditions": "purified TGR, DTNB reduction, TNB absorbance 405 nm; activity change, negative = inhibition: at 114 µM (top of the series) unless noted", "summary_of_the_method": "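First, TGR (20 nM dispensed) and NADPH were mixed with compound. Second, a 15 min room-temperature incubation followed. Third, further NADPH and then DTNB were added to start the reaction. Finally, TNB absorbance was monitored kinetically.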"}
{"smiles": "O=C(Nc1ccc2c(c1)OCO2)N1CCC(CO)(CC2CCCCO2)CC1", "note": "(configuration not stated)", "activity change, negative = inhibition": "inactive: -0.592%"}
{"smiles": "COc1ccc(-n2c(SCC(=O)NCc3cccs3)nnc2-c2ccoc2C)cc1", "Potency": "active: 39.8 µM"}
{"smiles": "CCOc1ccccc1C1C(C(N)=O)=C(C)Nc2nc(-c3cccc(C)c3)nn21", "note": "(configuration not stated)", "Potency": "active: 39.8 µM"}
{"smiles": "Cc1ccc(C(C)(O)CS(=O)(=O)Cc2ccccc2Cl)cc1", "note": "(configuration not stated)", "Potency": "active: 50.1 µM"}
{"smiles": "Cc1ccc(NC(=O)c2cc(-c3ccco3)on2)cc1", "activity change, negative = inhibition": "inactive: 1.26%"}
{"smiles": "COc1ccccc1C(=O)N1CCc2ccccc21", "Potency": "inconclusive [inhibitor, partial curve]"}
{"smiles": "CCSc1nnc2ccc(-c3ccco3)nn12", "Potency": "active: 35.5 µM"}
{"smiles": "COc1ccccc1N1CCN(C(=O)c2cc3c(=O)n(C)c4ccccc4c3s2)CC1", "activity change, negative = inhibition": "inactive: -6.65%"}
{"smiles": "CC(C)COc1ccc(C(=O)Nc2ccc(NC(=O)c3ccco3)c(Cl)c2)cc1", "activity change, negative = inhibition": "inactive: 5.62%"}
{"smiles": "Cc1ccc(C2C=C(c3ccccc3)Nc3nc(N4C(=O)CCC4=O)nn32)cc1", "note": "(configuration not stated)", "Potency": "active: 22.4 µM"}
{"smiles": "COCCOC1CCN(C(=O)c2cc(COc3ccc(-n4cncn4)cc3)on2)CC1", "Potency": "inconclusive [inhibitor, single point]"}
{"smiles": "CC(C)C(C)NC(=O)CSc1nc2scc(-c3ccco3)c2c(=O)n1-c1ccccc1", "note": "(configuration not stated)", "Potency": "active: 25.1 µM"}
{"smiles": "O=C(Nc1cccc2ccccc12)c1ccc(Br)o1", "activity change, negative = inhibition": "inactive: -1.09%"}
{"smiles": "Cc1ccc(C)c(N2C(=O)N(Cc3c(F)cccc3Cl)c3ccccc3S2(=O)=O)c1", "activity change, negative = inhibition": "inactive: 12.1%"}
{"smiles": "CN1/C(=C/C(=O)CSc2ccccc2C(=O)O)C(C)(C)c2ccccc21", "Potency": "inconclusive [inhibitor, partial curve]"}
{"smiles": "NC1=NC[C@@H](Cc2ccc(O)cc2)N1CC1CCCCC1", "Potency": "inconclusive [inhibitor, partial curve, poor fit]"}
{"smiles": "COc1ccc(C(C)=O)cc1COc1cccnc1[N+](=O)[O-]", "Potency": "inconclusive [inhibitor, partial curve, poor fit]"}
{"smiles": "CCOc1ccccc1-c1nc(CN2CCN(C(=O)c3ccco3)CC2)c(C)o1", "Potency": "inconclusive [inhibitor, partial curve]"}
{"smiles": "Cc1ccc(S(=O)(=O)/N=C2/NC(=O)/C(=C/c3ccc(Br)o3)S2)cc1", "Potency": "active: 22.4 µM"}
{"smiles": "CN(C)S(=O)(=O)c1ccc(NC(=O)CN2CCCCCC2)cc1", "activity change, negative = inhibition": "inactive: -0.25%"}
{"smiles": "O=C(O)C1C2C=CC(O2)C1C(=O)NCCC1=CCCCC1", "note": "(configuration not stated)", "Potency": "active: 22.4 µM"}
{"smiles": "CC(=O)OCC1=C(C(=O)O)N2C(=O)C(NC(=O)c3ccc(F)cc3)C2SC1", "note": "(configuration not stated)", "Potency": "inconclusive [inhibitor, partial curve]"}
{"smiles": "Cc1cccc([C@@H]2[C@@H]3C(=O)N(Cc4ccccc4)C(=O)[C@@H]3[C@]3(Cc4ccccc4)C(=O)N(c4ccccc4)C(=O)N23)c1", "activity change, negative = inhibition": "inactive: -15%"}
{"smiles": "CCC(=NCc1ccco1)c1c(O)n(C)c(=O)n(C)c1=O", "Potency": "active: 25.1 µM"}
{"smiles": "O=C1CC(N2CCC(c3nc4ccccc4o3)CC2)C(=O)N1c1ccc(Cl)c(C(F)(F)F)c1", "note": "(configuration not stated)", "Potency": "active: 14.1 µM"}
{"smiles": "COc1ccc(C)cc1NC(=O)C(C)N(c1ccc(C)cc1)S(C)(=O)=O", "note": "(configuration not stated)", "activity change, negative = inhibition": "inactive: 1.44%"}
{"smiles": "O=c1[nH]c2ccccc2c(O)c1O", "Potency": "inconclusive [inhibitor, partial curve]"}
{"smiles": "CC(Oc1ccccc1)C(=O)Nc1ccc(C(=O)OCc2cc(=O)n3nc(C4CC4)sc3n2)cc1", "note": "(configuration not stated)", "activity change, negative = inhibition": "inactive: -1.97%"}
{"smiles": "N#Cc1nc(Nc2cccc(Cl)c2)c2ncn(C3CCCC3)c2n1", "activity change, negative = inhibition": "inactive: 0.799%"}
{"smiles": "CN(CCC#N)Cc1cc(=O)oc2ccc3ccccc3c12", "Potency": "inconclusive [inhibitor, partial curve]"}
{"smiles": "Cc1cc(C)c(S(=O)(=O)N(CC(=O)N2CCOCC2)C2CCCCC2)c(C)c1", "activity change, negative = inhibition": "inactive: 4.08%"}
{"smiles": "O=C(NCCc1ccccc1)C(=O)NCC(c1cccs1)S(=O)(=O)c1cccs1", "note": "(configuration not stated)", "Potency": "inconclusive [inhibitor, single point]"}
{"smiles": "CCN1C(=O)/C(=C\\N2CCCCCC2)SC1=S", "activity change, negative = inhibition": "inactive: -2.34%"}
{"smiles": "COCCN(C(=S)Nc1ccc(OC)c(Cl)c1)C1CCN(C(C)C)CC1", "activity change, negative = inhibition": "inactive: 3.04%"}
{"smiles": "CCc1ccc(NC(=O)c2cnn(-c3c(C)cccc3C)c2C2CCN(C(=O)OC(C)(C)C)CC2)cc1", "activity change, negative = inhibition": "inactive: 8.92%"}
{"smiles": "CCC1(C)Cc2nc(Cl)c(C#N)cc2CO1", "note": "(configuration not stated)", "Potency": "inconclusive [inhibitor, partial curve]"}
{"smiles": "CC(=O)C1=C(NC(=O)c2ccccc2F)C[C@@H]2[C@H]1C2(C)C", "Potency": "inconclusive [inhibitor, partial curve]"}
